{"source": "PubChem BioAssay AID1476", "about": "(National Center for Advancing Translational Sciences (NCATS), 2009)", "note": "Among all 200,000 compounds or so, about 4,500 (2.2%) were called active. Inconclusive results, whose numbers are uncertain, are shown with a selection of clear calls. The call rests on the fitted dose curve; in most records, active means well fitted inhibition curve with a large enough effect; inconclusive means small, poorly fitted or top-dose-only effect, or effect the other way; inactive means flat fitted curve, though single readings scatter. Potencies of inconclusive entries are doubtful fits and often do not repeat. Potency means the concentration at half of the fitted maximal effect; tags describe the fitted curve by direction and shape.", "data": [{"molecular_target": "Cruzipain (Trypanosoma cruzi) (UniProt P25779)", "sequence (P25779 whole entry, looked up)": "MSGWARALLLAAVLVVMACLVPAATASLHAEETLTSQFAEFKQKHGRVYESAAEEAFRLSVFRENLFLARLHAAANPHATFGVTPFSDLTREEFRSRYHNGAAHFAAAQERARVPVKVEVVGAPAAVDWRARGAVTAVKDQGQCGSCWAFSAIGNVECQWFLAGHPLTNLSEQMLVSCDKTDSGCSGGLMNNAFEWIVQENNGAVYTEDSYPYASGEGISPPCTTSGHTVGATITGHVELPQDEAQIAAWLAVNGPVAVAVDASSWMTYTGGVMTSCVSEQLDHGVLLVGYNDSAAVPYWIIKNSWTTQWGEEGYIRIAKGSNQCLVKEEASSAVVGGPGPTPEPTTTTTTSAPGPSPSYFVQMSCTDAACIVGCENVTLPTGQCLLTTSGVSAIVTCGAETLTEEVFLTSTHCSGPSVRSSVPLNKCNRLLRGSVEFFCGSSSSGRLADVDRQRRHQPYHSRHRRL", "assay": "qHTS Assay for Promiscuous and Specific Inhibitors of Cruzain (without detergent); further: nearly all actives have a fitted effect of over 40% in size;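 on max response, negative = inhibition: plate controls were enzyme without inhibitor for no effect and buffer without enzyme for full effect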", "conditions": "purified cruzain, Z-FR-AMC fluorescence, no detergent", "method_in_brief": "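Purified cruzain at 1.5 nM, pre-incubated 15 min with compound at room temperature in 100 mM sodium acetate pH 5.5, 5 mM DTT, 0.00005% Triton X-100. Reaction started with 2 uM Z-FR-AMC; AMC fluorescence increase over 60 s gives rate.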", "values": [{"smiles": "COc1cccc(N2CCN(C(=O)c3c4c(nc5ccccc35)C(=O)N(C3CCCCC3)C4)CC2)c1", "max response, negative = inhibition": "inactive: -12.8%"}, {"smiles": "CCCN(CC(=O)Nc1ccc(C(N)=O)cc1)CC(=O)Nc1ccc(Cl)cc1Cl", "Potency": "inconclusive: 31.6 µM [inhibitor, single point]"}, {"smiles": "CCc1cccc(NC(=O)C(Cc2ccccc2)NS(=O)(=O)c2ccc3c(c2)c(=O)n(C)c(=O)n3C)c1", "note": "(centres undefined)", "max response, negative = inhibition": "inactive: -21.3%"}, {"smiles": "COc1ccc(-c2nc3sc(CCNS(=O)(=O)c4c(C)cc(C)cc4C)c(C)n3n2)cc1", "Potency": "inconclusive: 39.8 µM [activator, single point]"}, {"smiles": "CCCSCCCNC(=O)CN1C(=O)CCn2nc(-c3cn(C)c4ccccc34)cc21", "Potency": "inconclusive: 39.8 µM [activator, single point]"}, {"smiles": "CCC(C)NC(=O)CCC(=O)NNc1nc2ccccc2c2nc(C)nn12", "note": "(centres undefined)", "Potency": "inconclusive: 0.0126 µM [activator, full curve]"}, {"smiles": "Cc1ccc(C(=O)/C=C/c2cn(CC(O)CN3CCCCCC3)c3ccccc23)cc1", "note": "(centres undefined)", "Potency": "inconclusive: 25.1 µM [inhibitor, single point]"}, {"smiles": "Cc1cc(C)c(NC(=O)CN(C)S(=O)(=O)c2ccc3c(c2)c(=O)n(C)c(=O)n3C)c(C)c1", "max response, negative = inhibition": "inactive: -10.4%"}, {"smiles": "COc1ccccc1N1CCN(C(=O)CSc2nnc3n2C(C)(C)Cc2ccccc2-3)CC1", "Potency": "inconclusive: 39.8 µM [activator, single point]"}, {"smiles": "CNC(=O)c1ccc(Nc2nnc(-c3ccc(C)c(S(=O)(=O)NCC4CCCO4)c3)c3ccccc23)cc1", "note": "(centres undefined)", "Potency": "inconclusive: 39.8 µM [activator, single point]"}, {"smiles": "COc1ccc(S(=O)(=O)NCCc2sc(-c3cccc(F)c3)nc2C)cc1", "max response, negative = inhibition": "inactive: 1.85%"}, {"smiles": "O=C(Cn1cc(S(=O)(=O)N2CCN(c3ccccc3F)CC2)c2ccccc2c1=O)Nc1ccc(F)cc1Cl", "Potency": "inconclusive: 3.98 µM [inhibitor, single point]"}, {"smiles": "CC(C)c1ccc(NC(=O)c2ccc(F)c(S(=O)(=O)N3CCN(c4ccccc4F)CC3)c2)cc1", "max response, negative = inhibition": "inactive: 20.8%"}, {"smiles": "CC(C)c1ccc(NC(=O)CN2C(=O)CCc3cc(S(=O)(=O)N4CCOCC4)ccc32)cc1", "Potency": "inconclusive: 31.6 µM [activator, single point]"}, {"smiles": "O=C(NCCc1cn2ccccc2n1)C1CCCCC1", "Potency": "active: 15.8 µM"}, {"smiles": "N#Cc1ccc(-c2ccccc2)nc1SCC(=O)c1cc2ccccc2oc1=O", "Potency": "active: 20 µM"}, {"smiles": "CN(CCC#N)C(=O)COC(=O)c1c2c(nc3ccccc13)/C(=C/c1ccco1)CC2", "Potency": "inconclusive: 39.8 µM [activator, single point]"}, {"smiles": "Cc1ccc(Cl)cc1N1CCN(S(=O)(=O)c2ccc(-c3cnc(C4CC4)o3)cc2)CC1", "max response, negative = inhibition": "inactive: -1.92%"}, {"smiles": "COC(=O)c1sccc1S(=O)(=O)N1CCN(c2ccc(C(C)=O)cc2)CC1", "max response, negative = inhibition": "inactive: -6.51%"}, {"smiles": "COc1ccc(Cl)cc1NC(=O)Cn1nnc(C(=O)NCc2ccc3c(c2)OCO3)c1N", "Potency": "inconclusive: 39.8 µM [inhibitor, single point]"}, {"smiles": "N#CC(C(=O)OC1CCCCC1)c1nc2ccccc2nc1N1CCCCC1", "note": "(centres undefined)", "Potency": "inconclusive: 31.6 µM [inhibitor, single point]"}, {"smiles": "CCCOc1ccc(/C(O)=C2/C(=O)C(=O)N(c3cc(C)on3)C2c2ccc(C(=O)OC)cc2)cc1", "note": "(centres undefined)", "Potency": "inconclusive: 31.6 µM [activator, single point]"}, {"smiles": "O=C(NC(=S)Nc1cccc(Cl)c1N1CCCCC1)c1cccs1", "Potency": "inconclusive: 39.8 µM [inhibitor, single point]"}, {"smiles": "CNC(=O)C1CC(=O)N(Cc2ccc3c(c2)OCO3)C(=Nc2ccc(F)cc2)S1", "note": "(centres undefined)", "Potency": "inconclusive: 31.6 µM [activator, single point]"}, {"smiles": "COc1ccc(NC(=O)CSc2nc(-c3ccc(OC)c(OC)c3)[nH]c2-c2ccc(C)cc2)cc1", "max response, negative = inhibition": "inactive: 29.8%"}, {"smiles": "CCOC(=O)c1ccccc1NC(=O)c1c(O)c2ccccc2n(CC)c1=O", "Potency": "inconclusive: 39.8 µM [activator, single point]"}, {"smiles": "COc1ccc(C2CC(c3ccccc3)=NN2C(=O)COC(=O)c2cnc(Cl)c(Cl)c2)cc1", "note": "(centres undefined)", "Potency": "active: 5.01 µM"}, {"smiles": "COc1ccccc1CN(Cc1ccco1)c1cnc(S(C)(=O)=O)nc1C(=O)Nc1ccccc1Cl", "Potency": "inconclusive: 31.6 µM [inhibitor, single point]"}, {"smiles": "O=C(CCCn1c(=O)[nH]c2ccsc2c1=O)N1CCN(c2cccc(C(F)(F)F)c2)CC1", "Potency": "inconclusive: 39.8 µM [activator, single point]"}, {"smiles": "COc1ccc(C(=O)N2CCN(S(=O)(=O)c3cc(Cl)ccc3OC)CC2)cc1", "Potency": "inconclusive: 39.8 µM [activator, single point]"}, {"smiles": "O=C(Nc1ccc(Cl)cc1)c1cc(S(=O)(=O)N2CCCc3ccccc32)ccc1F", "max response, negative = inhibition": "inactive: -13.3%"}, {"smiles": "[O-]/C(=C(\\C(=S)Nc1cccc2ccccc12)[n+]1ccccc1)c1ccc(Cl)s1", "Potency": "active: 7.94 µM"}, {"smiles": "O=C(CCn1c(=O)[nH]c2ccccc2c1=O)N1CCN(c2cccc(C(F)(F)F)c2)CC1", "Potency": "inconclusive: 39.8 µM [activator, single point]"}, {"smiles": "COc1ccc(-c2csc(NC(=O)c3ccc(S(=O)(=O)N4CCc5ccccc5C4)cc3)n2)c(OC)c1", "Potency": "active: 3.98 µM"}, {"smiles": "CC(/C=C/c1ccccc1)=N/O", "Potency": "inconclusive: 39.8 µM [inhibitor, single point]"}, {"smiles": "O=C(/C=C/c1ccccc1)c1c(O)n(CCc2ccccc2)c(=O)[nH]c1=O", "Potency": "inconclusive: 31.6 µM [inhibitor, single point]"}, {"smiles": "O=C(CCCSc1ccccc1)Nc1nc(-c2ccccn2)cs1", "max response, negative = inhibition": "inactive: 3.29%"}, {"smiles": "Cn1c(CN2CCOCC2)nnc1SCC(=O)NCCc1ccccc1", "max response, negative = inhibition": "inactive: 1.75%"}, {"smiles": "Cn1c(=O)c(C(=O)COC(=O)c2cc(-c3ccccc3)nc3ccccc23)c(N)n(Cc2ccccc2)c1=O", "Potency": "active: 10 µM"}, {"smiles": "Cc1ccc(C2c3c(-c4ccccc4O)n[nH]c3C(=O)N2CCc2ccccc2)cc1", "note": "(centres undefined)", "Potency": "inconclusive: 39.8 µM [inhibitor, single point]"}, {"smiles": "CCCC1=Nc2cc(C(=O)NCC(C)c3ccccc3)ccc2Sc2ccccc21", "note": "(centres undefined)", "Potency": "inconclusive: 31.6 µM [inhibitor, single point]"}, {"smiles": "CCOCCCNS(=O)(=O)c1ccc(NC(=O)N2c3ccccc3Sc3ccccc32)cc1", "Potency": "inconclusive: 39.8 µM [activator, single point]"}, {"smiles": "COc1cc(C2CC(=O)N3CN(Cc4ccccc4)CSC3=C2C#N)ccc1OCc1ccccc1", "note": "(centres undefined)", "Potency": "active: 15.8 µM"}, {"smiles": "O=c1oc2ccccc2cc1-c1csc(Cc2nc(-c3ccc(Cl)cc3)cs2)n1", "Potency": "active: 10 µM"}, {"smiles": "Cc1cccn2c(=O)c3cc(C(=O)NC4CCCC4)c(=N)n(C4CCCC4)c3nc12", "max response, negative = inhibition": "inconclusive: -78.5% [inhibitor]"}, {"smiles": "CCc1ccccc1N1C(=O)N(CC(=O)c2ccc(Cl)cc2)c2ccccc2S1(=O)=O", "Potency": "inconclusive: 39.8 µM [inhibitor, single point]"}, {"smiles": "CCOC(=O)c1c(C)[nH]c(C(=O)COC(=O)[C@H](C)NC(=O)c2ccccc2Cl)c1C", "max response, negative = inhibition": "inactive: -0.786%"}, {"smiles": "Cc1ccc(-n2c(SCC(=O)Nc3nccs3)nc3c(c2=O)SCC3)cc1", "Potency": "inconclusive: 39.8 µM [inhibitor, single point]"}, {"smiles": "CC(C)OC(=O)c1c(NC(=O)c2ccco2)sc2c1CCCC2", "max response, negative = inhibition": "inactive: -12.4%"}, {"smiles": "Cn1c(CSCc2ccc(F)cc2)nnc1SCC(=O)N1CCN(c2ccccc2)CC1", "Potency": "inconclusive: 25.1 µM [activator, single point]"}, {"smiles": "COc1ccc(Nc2cc(C(=O)NCc3cccs3)c3ccccc3n2)cc1", "Potency": "inconclusive: 39.8 µM [inhibitor, single point]"}, {"smiles": "c1ccc(CCNC2=NCCCS2)cc1", "max response, negative = inhibition": "inactive: -1.78%"}, {"smiles": "CS(=O)(=O)c1ccc2nc(NC(=O)Nc3ccc(Cl)cc3)sc2c1", "Potency": "inconclusive: 39.8 µM [inhibitor, single point]"}, {"smiles": "CC(C)(C)c1ccc(S(=O)(=O)/C=C\\C#N)cc1", "max response, negative = inhibition": "inactive: 23.6%"}, {"smiles": "COc1ccccc1N1CCN(C(=O)c2cnn(C(C)(C)C)c2C2CCN(C(=O)OC(C)(C)C)CC2)CC1", "Potency": "inconclusive: 3.16 µM [activator, single point]"}, {"smiles": "COc1ccc(C(=O)/C=C/Nc2ccc(S(=O)(=O)Nc3cccc(C(C)=O)c3)cc2)cc1", "Potency": "inconclusive: 39.8 µM [inhibitor, single point]"}, {"smiles": "O=C(CN1CCN(c2ccccc2)CC1)Nc1ccccc1C(F)(F)F", "Potency": "inconclusive: 20 µM [activator, single point]"}, {"smiles": "CCCOC(=O)c1c(NC(=O)c2cc3nc(-c4ccc(OC)cc4)cc(C(F)(F)F)n3n2)sc2c1CCCC2", "max response, negative = inhibition": "inactive: 3.32%"}, {"smiles": "C=CCN1C(=O)NC(c2ccc(OC)cc2)(C(F)(F)F)S/C1=C(\\C#N)c1nnc(N2CCOCC2)n1-c1ccccc1", "note": "(centres undefined)", "Potency": "inconclusive: 39.8 µM [activator, single point]"}, {"smiles": "O=C(c1cc2nc(-c3ccco3)cc(C(F)(F)F)n2n1)N1CCCCCC1", "Potency": "inconclusive: 31.6 µM [activator, single point]"}, {"smiles": "COc1ccccc1CNC(=O)C1CCN(S(=O)(=O)N2CCCCC2)CC1", "Potency": "inconclusive: 15.8 µM [inhibitor, single point]"}, {"smiles": "COc1cc(Cl)c(C)cc1NC(=O)c1nn(-c2ccc(C)cc2)c(=O)n(C)c1=O", "max response, negative = inhibition": "inactive: -1.93%"}, {"smiles": "CCOc1ccc(S(=O)(=O)N(C(C)=O)c2ccc3oc(C)c(C(=O)OC)c3c2)cc1", "Potency": "inconclusive: 31.6 µM [activator, single point]"}, {"smiles": "Cc1ccc(C)c(C(=N)c2ccccc2Cc2ccccc2)c1", "max response, negative = inhibition": "inactive: -5.35%"}]}]}
